# Experimental data taken from PubChem BioAssay (NCATS).
# “And” between values parts separate entries of the source, which are not always exact repeats. Equal values may be shown once. Inconclusive results, whose numbers are uncertain, are shown with a selection of clear calls. Potencies of inconclusive entries are doubtful fits and often do not repeat. The source made the active and inactive calls. Calls come from the whole dose curve; as a rule, active = well fitted cell-killing curve with a large enough effect; inconclusive = small, poorly fitted or top-dose-only effect, or effect the other way; inactive = no such curve, though single readings can be large or run the other way.
# Assay: Viability qHTS for spleen associated tyrosine kinase inhibitor (SYKi) naive MV4-11 cells (AID 1963823); note: nearly all actives have a fitted effect of over 40% in size
# Details: MV4-11 AML viability, CellTiter-Glo luminescence, 72 h; viability (% of control): at 45 µM (top of the series)
# Text: Department of Medicine, Hematology/Oncology
# University Hospital Frankfurt, Germany.
# Trials have shown promising clinical activity of the selective SYK inhibitor entospletinib in patients with high expressing HOXA9/MEIS1 acute leukemias. As the development of resistance mechanisms is a common problem in the use of targeted drugs, we performed a chemical library screen to identify drug sensitivities in SYK inhibitor resistant AML cells. […] Glucocorticoids are potent immunosuppressants which work in part by inhibiting the transcription of cytokine genes.
# Described herein is a viability screen to look for activity in the SYK inhibitor naive cell line against four NCATS compound libraries (MIPE 5.0, NPC, NPACT, and Kinase) totaling 11372 compounds. Active hits were reacquired for confirmation and further secondary assay testing.
# SEQUENCE No. (e.g., 1, 2, 3, etc.); […] (e.g., Cells, Incubation, Reagent, etc.); VALUE; DESCRIPTION.
# 1; Media; 2uL; white, solid-bottom Corning assay plate.
# 2; Compounds; 23nL; Echo acoustic dispenser.
# 3; Cell; 5uL; 500 cells per well.
# 4: Incubation; 72hr; 37 C, 5% CO2, 95% humidity.
# 5; Reagent; 3uL; CellTiter-Glo reagent (Promega).
# 6; Incubation; 10min; room temperature.
# 7; Detection; Luminescence; ViewLux plate reader (PerkinElmer).
# NOTES (numbers refer to Sequence numbers above
# 1. Quantitative high-throughput screening (qHTS) of small molecule compounds was conducted on naive SYKi MV4-11 cell line.
# 2. Twenty-three nanoliter of small molecule compounds were added to each assay plates using the Echo acoustic dispenser (Beckman Coulter).
# 3. Cells were seeded into the assay plates at a final density of 500 cells in 5uL of media per well using the Multi-drop Combi dispenser.
# 4. Plates were covered with stainless steel gasketed lids and incubated for 72 hours at standard cell culture conditions.
# 5. Viability was assessed by adding 3uL of CellTiter-Glo detection reagent (Promega).
# 6. Plates were covered with gasket lids and incubated for 10 minutes at room temperature.
# 7. Luminescence was measured on a ViewLux plate reader (PerkinElmer).
# Potency is the fitted concentration of half-maximal effect; tags give direction and shape of the fitted curve.
SMILES,viability (% of control),Potency
Cc1c(N)cccc1C(F)(F)F,inactive: 91.7%,–
CC(=O)c1cc2ccccc2s1,–,"inconclusive: 9.44 µM [cytotoxic, partial curve, poor fit]"
CC(C)(O)C1CC=C(C(=O)OC[C@H]2O[C@@H](Oc3cc(C(=O)O)cc(O)c3O)[C@H](O)[C@@H](O)[C@@H]2O)CC1 (stereo not given in full),inactive: 85.6% [at 17.3 µM],–
C=CC(=O)N1CCN(C(=O)CNc2cc(I)c(Cl)cc2O)CC1,–,active: 7.31 µM
CN1CCN(C2=Nc3ccccc3Nc3ccc(O)cc32)CC1,–,"inconclusive: 0.103 µM [cytotoxic, full curve, poor fit]"
C/C=C(/C)C(=O)O[C@@H]1C[C@@H](OC(=O)/C(C)=C\C)[C@@]2(C)C3C(=O)C=C(C)C2C3C1(C)C,–,"inconclusive: 8.93 µM [cytotoxic, single point]"
O=C(O)c1[nH]n(-c2ccc(S(=O)(=O)O)cc2)c(=O)c1N=Nc1ccc(S(=O)(=O)O)cc1,–,"inconclusive: 0.841 µM [cytotoxic, partial curve, poor fit]"
CC(C)S(=O)(=O)Nc1ccc(F)c(C(=O)c2c[nH]c3ncc(-c4cccnc4)cc23)c1F,–,"inconclusive: 1.84 µM [cytotoxic, full curve]"
O=c1[nH]c(=O)n([C@H]2C[C@H](O)[C@@H](CO)O2)cc1I,–,"inconclusive: 10.6 µM [cytotoxic, partial curve] and inconclusive: 5.25 µM [cytotoxic, partial curve]"
CO[C@H]1C=C2C(CC[C@H](O[C@@H]3O[C@H](CO)[C@@H](O)[C@@H](O)[C@H]3O)C2(C)C)[C@]2(C)CC[C@]3(C)C([C@H](C)C(O)C(C=C(C)C)O[C@@H]4O[C@H](CO)[C@@H](O)[C@@H](O)[C@H]4O)CC[C@@]3(C)C12 (stereo not given in full),inactive: 86.9% [at 9.25 µM],–
CNC(=O)c1c(C)oc2cc(Oc3ncnc4cc(OC)c(OC)cc34)ccc12,–,"inconclusive: 11.8 µM [cytotoxic, partial curve, poor fit]"
CC(=O)C12OC(C)(C)OC1CC1C3CCC4=CC(=O)C=CC4(C)C3(F)C(O)CC12C (stereo not given),inactive: 121%,–
COC(=O)[C@@]1(C)CC[C@]2(C(=O)O[C@@H]3O[C@H](CO)[C@@H](O)[C@H](O)[C@H]3O)CC[C@]3(C)C(=CCC4[C@@]5(C)CC[C@H](O[C@@H]6O[C@H](C(=O)O)[C@@H](O)[C@H](O)[C@H]6O)C(C)(C)C5CC[C@]43C)[C@@H]2C1 (stereo not given in full),inactive: 68.6% [at 9.25 µM],–
O=C(CC1C(=O)Nc2ccccc21)OC[C@H]1O[C@@H](OCCc2ccc(O)cc2)[C@H](O)[C@@H](O)[C@@H]1O (stereo not given in full),–,"inconclusive: 0.0159 µM [cytotoxic, full curve, poor fit]"
CC1OC(O[C@H]2CC[C@@]3(C)C(CC[C@]4(C)C3CC=C3C5CC(C)(C)CC[C@]5(C(=O)OC5OC(CO)C(OC6OC(COC7OCC(O)C(O)C7O)C(O)C(O)C6O)C(O)C5O)CC[C@]34C)C2(C)C)C(O)C(O)C1OC1OCC(OC2OCC(O)C(O)C2O)C(O)C1O (stereo not given in full),–,active: 0.155 µM
C=C(C)C(C)C1OC23CC4(CO2)C(CCC2C5(C)CCC(OC6OCC(O)C(OC7OC(CO)C(O)C(OC8OCC(O)C(O)C8O)C7O)C6OC6OC(CO)C(O)C6O)C(C)(C)C5CCC24C)C3C(C)(O)C1OC(C)=O (stereo not given),–,"inconclusive: 6.93 µM [cytotoxic, single point]"
Cc1ccc([N+](=O)[O-])cc1S(=O)(=O)N(C)/N=C/c1cnc2ccc(Br)cn12,–,active: 16.4 nM and active: 26.3 nM
O=C(O)c1cc(-c2ccccc2)nc2ccccc12,–,"inconclusive: 34.7 µM [cytotoxic, partial curve] and inactive and inconclusive: 4.6 nM [cytotoxic, full curve, poor fit]"
CNCCCN1c2ccccc2CCc2ccccc21,–,"inconclusive: 13.3 µM [cytotoxic, partial curve]"
COC1CCC(N2C(=O)CNc3ncc(-c4ccc(C(C)(C)O)nc4)nc32)CC1 (stereo not given),–,active: 5.25 µM

SMILES,viability (% of control),Potency
C[C@@H]1O[C@@H](O[C@H]2[C@H](OC(=O)[C@]34CCC(C)(C)C[C@H]3C3=CCC5[C@@]6(C)C[C@H](O)[C@H](O[C@@H]7O[C@H](CO)[C@@H](O[C@@H]8O[C@H](CO)[C@@H](O)[C@H](O)[C@H]8O)[C@H](O)[C@H]7O)[C@@](C)(CO)C6[C@H](O)C[C@@]5(C)[C@]3(C)C[C@H]4O)OC[C@H](O)[C@@H]2O)[C@H](O)[C@H](O)[C@H]1O[C@@H]1OC[C@@H](O)[C@H](O[C@@H]2OC[C@](O)(CO)[C@H]2O)[C@H]1O (stereo not given in full),–,"inconclusive: 0.174 µM [rising, full curve, poor fit]"
CC(C)C[C@H](CO)Nc1nc(S[C@@H](C)c2ccccc2)nc2nc(N)sc12,–,active: 14.6 µM
COc1cc2nc(N3CCN(C(=O)c4ccco4)C4CCCCC43)nc(N)c2cc1OC (stereo not given),–,"inconclusive: 2.59 µM [cytotoxic, full curve]"
COc1ccc([C@@H]2N[C@H](C(=O)O)Cc3c2[nH]c2ccccc32)cc1CN1CCN(c2ccccc2F)CC1,–,"inconclusive: 23.1 µM [cytotoxic, single point]"
O=C(NOCCO)c1ccc2cncn2c1Nc1ccc(I)cc1F,–,active: 2.06 µM
CC1=C(/C=C/C(C)=C/C=C/C(C)=C/C=C/C=C(C)/C=C/C=C(C)/C=C/C2=C(C)CCCC2(C)C)C(C)(C)CCC1,–,active: 23.5 µM
Nc1ncnc2c1ncn2[C@H]1CCCO1,inactive: 43.9%,–
CC(=O)Oc1cccc2c1C(=O)c1c(OC(C)=O)cc(C(=O)O)cc1C2=O,–,"inconclusive: 15 µM [cytotoxic, single point]"
O=C(O)CNC(=O)c1ccccc1I,–,"inconclusive: 23.7 µM [cytotoxic, single point]"
C[C@H](NC(=O)Cc1cc(F)cc(F)c1)C(=O)N[C@H](C(=O)OC(C)(C)C)c1ccccc1,inactive: 70.1%,–
CN(C)c1ccc(Nc2nc(N)n(C(=O)c3c(F)cccc3F)n2)cc1,–,active: 3.66 µM
CCCC(=O)O[C@]1(C(=O)CC)CC[C@H]2[C@@H]3CCC4=CC(=O)CC[C@]4(C)[C@H]3[C@@H](O)C[C@@]21C,–,"inconclusive: 0.841 µM [rising, full curve, poor fit]"
CCOC(=O)n1ccn(C)c1=S,inactive: 46%,–
CC1(C)NC(=O)N(c2ccc([N+](=O)[O-])c(C(F)(F)F)c2)C1=O,–,"inconclusive: 13.3 µM [cytotoxic, partial curve] and inconclusive: 37.2 µM [cytotoxic, single point]"
CCOCc1nc2c(N)nc3ccccc3c2n1CC(C)(C)O,–,"inconclusive: 10.5 µM [cytotoxic, partial curve, poor fit]"
O=C(CCCCCCC(=O)Nc1ccc([C@H]2O[C@@H](CSc3nc(-c4ccccc4)c(-c4ccccc4)o3)C[C@@H](c3ccc(CO)cc3)O2)cc1)NO,–,"active: 16.4 µM and inconclusive: 6.05 µM [cytotoxic, single point]"
CN1C(=O)c2ccccc2-n2c(nc3ccccc3c2=O)/C1=C/c1ccccc1,–,"inconclusive: 22.7 µM [cytotoxic, partial curve, poor fit]"
Cc1ccc(Cl)cc1N(CC(=O)Nc1c(F)cccc1F)S(C)(=O)=O,–,active: 5.17 µM
CC(C)CNc1ccnc(NCc2csc(-c3ccccc3)n2)n1,–,active: 1.66 µM
COc1cc(C(=O)NC2CCN(C)CC2)ccc1Nc1ncc2c(n1)N(C1CCCC1)CC(F)(F)C(=O)N2C,–,active: 0.0231 µM
